Experimental data taken from PMC4336329 (PLoS ONE, 2015).
About 2,200 (0.71%) of roughly 310,000 compounds showed an effect of 50% or more. The effect is printed as a negative number. This is one part of the list.

Molecular target: human ether-à-go-go-related gene (hERG) potassium channel (human, UniProt Q12809)
Experiment: primary screen, population patch clamp on CHO cells stably expressing hERG

Sequence of human ether-à-go-go-related gene (hERG) potassium channel (Q12809 whole entry, looked up): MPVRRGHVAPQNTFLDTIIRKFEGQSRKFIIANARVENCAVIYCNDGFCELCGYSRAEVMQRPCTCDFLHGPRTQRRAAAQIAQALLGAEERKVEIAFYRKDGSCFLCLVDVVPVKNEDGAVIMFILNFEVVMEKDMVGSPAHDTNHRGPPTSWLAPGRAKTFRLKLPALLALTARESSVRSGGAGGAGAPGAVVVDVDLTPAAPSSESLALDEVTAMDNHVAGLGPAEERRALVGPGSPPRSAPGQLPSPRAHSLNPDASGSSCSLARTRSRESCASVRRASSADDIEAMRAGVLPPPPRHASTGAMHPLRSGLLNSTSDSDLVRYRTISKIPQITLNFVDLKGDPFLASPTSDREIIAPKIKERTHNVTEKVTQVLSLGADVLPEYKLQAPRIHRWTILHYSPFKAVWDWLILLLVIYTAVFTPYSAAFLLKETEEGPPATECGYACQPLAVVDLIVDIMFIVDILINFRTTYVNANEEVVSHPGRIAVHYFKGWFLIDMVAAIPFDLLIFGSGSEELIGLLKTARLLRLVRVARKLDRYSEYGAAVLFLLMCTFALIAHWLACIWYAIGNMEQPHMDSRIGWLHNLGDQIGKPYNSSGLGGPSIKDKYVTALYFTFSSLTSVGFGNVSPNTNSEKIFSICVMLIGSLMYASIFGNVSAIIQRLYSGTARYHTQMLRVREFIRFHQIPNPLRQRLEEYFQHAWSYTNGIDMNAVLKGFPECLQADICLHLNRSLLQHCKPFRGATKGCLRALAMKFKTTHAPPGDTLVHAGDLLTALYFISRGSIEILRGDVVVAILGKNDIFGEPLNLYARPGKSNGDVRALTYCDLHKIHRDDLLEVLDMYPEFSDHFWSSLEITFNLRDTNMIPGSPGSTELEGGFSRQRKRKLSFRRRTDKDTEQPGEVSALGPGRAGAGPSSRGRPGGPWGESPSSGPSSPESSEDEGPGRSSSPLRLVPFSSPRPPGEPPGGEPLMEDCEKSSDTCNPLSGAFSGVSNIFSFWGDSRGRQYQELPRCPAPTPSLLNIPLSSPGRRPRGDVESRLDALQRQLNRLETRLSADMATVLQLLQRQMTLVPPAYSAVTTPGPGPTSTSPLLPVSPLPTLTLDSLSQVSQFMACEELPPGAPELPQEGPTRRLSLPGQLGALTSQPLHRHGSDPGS

Q: For `Cc1cc(NC(=O)c2c([N+](=O)[O-])c(C)nn2C)no1`, which “hERG current change (%, negative = inhibition) at 1uM” value is on record?
A: 14.8%

Q: For `CCC(C)NC(=O)CSc1nc2c(sc(=S)n2Cc2ccco2)c(=O)n1-c1ccccc1` (stereo not shown), which “hERG current change (%, negative = inhibition) at 1uM” value is on record?
A: -1.4%

Q: With `COc1ccc(C2C(C)C3(O)CC(C#N)(C(=O)N3)C2(C#N)C#N)cc1` (stereo not shown) as the compound, how does the “hERG current change (%, negative = inhibition) at 1uM” value read?
A: 7.88%

Q: With `COc1nc(C)nc(NC(=O)NS(=O)(=O)c2ccc(C)cc2)n1` as the compound, how does the “hERG current change (%, negative = inhibition) at 1uM” value read?
A: 4.14%

Q: With `Nc1ccc(C(=O)OCc2nc3ccccc3s2)cc1` as the compound, how does the “hERG current change (%, negative = inhibition) at 1uM” value read?
A: 3.72%

Q: For `Cc1ccc(NC(=O)NNC(=O)C2CCN(Cc3ccc(F)cc3Cl)CC2)cc1`, which “hERG current change (%, negative = inhibition) at 1uM” value is on record?
A: 11.7%

Q: With `Cc1ccc(CN=c2c([N+](=O)[O-])nn(-c3cccc(C)c3)n2O)cc1` as the compound, how does the “hERG current change (%, negative = inhibition) at 1uM” value read?
A: 1.77%

Q: With `CCN1CCCC1CNC(=O)CCc1nnc(CCC2CCCCC2)o1` (stereo not shown) as the compound, how does the “hERG current change (%, negative = inhibition) at 1uM” value read?
A: 6.65%

Q: With `Fc1ccc(CSc2nnc(-c3cccnc3)o2)cc1` as the compound, how does the “hERG current change (%, negative = inhibition) at 1uM” value read?
A: 10.2%

Q: Which “hERG current change (%, negative = inhibition) at 1uM” value does the source give for `COc1cccc(NC(=O)c2ncn[nH]2)c1` here?
A: 7.89%

Q: `O=C(COC(=O)C1CC(=O)N(C2CCCCC2)C1)c1ccc(F)cc1` (stereo not shown) was tested. Which “hERG current change (%, negative = inhibition) at 1uM” value did it give?
A: -22.8%

Q: For `O=C(CN1C(=O)c2ccccc2C1=O)N1CCN(c2nnc(-c3ccccc3)c3ccccc23)CC1`, which “hERG current change (%, negative = inhibition) at 1uM” value is on record?
A: 13.5%

Q: Which “hERG current change (%, negative = inhibition) at 1uM” value does the source give for `N#Cc1ccccc1OCC(=O)OCC(=O)Nc1ccc2c(c1)OCO2` here?
A: 12.2%

Q: For `CC(C)Cn1c(=O)c2ccccc2n2c(SCC(=O)N3c4ccccc4CC3C)nnc12` (stereo not shown), which “hERG current change (%, negative = inhibition) at 1uM” value is on record?
A: 8.07%

Q: `CCOC(=O)c1c(S(=O)(=O)NCC(=O)NCc2ccc(C)cc2)c(C)n(C)c1C` was tested. Which “hERG current change (%, negative = inhibition) at 1uM” value did it give?
A: 15%

Q: `CN(CC1CCOCC1)C(=O)CC1C(=O)NCCN1Cc1ccc(-c2ccccc2)cc1` (stereo not shown) was tested. Which “hERG current change (%, negative = inhibition) at 1uM” value did it give?
A: 10.8%

Q: How did the “hERG current change (%, negative = inhibition) at 1uM” value turn out when `O=C(CSCc1cccs1)N1CCCC1` was run?
A: 10.8%

Q: Which “hERG current change (%, negative = inhibition) at 1uM” value does the source give for `Nc1ccc(C(=O)NCc2ccccc2)cc1` here?
A: 8.94%

Q: How did the “hERG current change (%, negative = inhibition) at 1uM” value turn out when `CCOCC(=O)Nc1ccc(S(=O)(=O)Nc2nccs2)cc1` was run?
A: 10.9%

Q: How did the “hERG current change (%, negative = inhibition) at 1uM” value turn out when `CCCOc1ccc(C(CC(=O)O)NC(=O)c2ccc3c(c2)OCO3)cc1` (stereo not shown) was run?
A: 19%

Q: With `COc1ccc(NC(=O)C2CC(=O)N(CCc3ccc(F)cc3)C2)c(OC)c1` (stereo not shown) as the compound, how does the “hERG current change (%, negative = inhibition) at 1uM” value read?
A: 3.5%

Q: Which “hERG current change (%, negative = inhibition) at 1uM” value does the source give for `CC(NC(=O)c1cn(C)c2ccc(S(=O)(=O)N3CCCC3)cc2c1=O)c1ccccc1` (stereo not shown) here?
A: 10.7%

Q: For `Cc1cc(-n2c(SCc3ccccc3F)nc3n[nH]c(C)c3c2=N)ccc1Cl`, which “hERG current change (%, negative = inhibition) at 1uM” value is on record?
A: 2.82%

Q: With `Cc1cc(C)n(CCCO)c(=O)c1C#N` as the compound, how does the “hERG current change (%, negative = inhibition) at 1uM” value read?
A: 3.09%

Q: How did the “hERG current change (%, negative = inhibition) at 1uM” value turn out when `COc1ccc(S(=O)(=O)NCC2CCC(C(=O)NCC(OC)OC)CC2)cc1` (stereo not shown) was run?
A: 5.35%

Q: Which “hERG current change (%, negative = inhibition) at 1uM” value does the source give for `CC(NC(=O)c1ccc(C#N)cc1)C1CC2CCC1C2` (stereo not shown) here?
A: -6.72%

Q: With `CCCCCCCCCCCNC(=O)c1ccoc1C` as the compound, how does the “hERG current change (%, negative = inhibition) at 1uM” value read?
A: 6.87%

Q: Which “hERG current change (%, negative = inhibition) at 1uM” value does the source give for `COc1ccc(OC)c(/C=C/C(=O)c2ccc3c(c2)OCO3)c1` here?
A: 2.61%

Q: How did the “hERG current change (%, negative = inhibition) at 1uM” value turn out when `COc1ccccc1C(C)NC(=O)c1ccccc1SCC(=O)N1CCCC1` (stereo not shown) was run?
A: 8.38%

Q: How did the “hERG current change (%, negative = inhibition) at 1uM” value turn out when `O=c1c2ccccc2c(-c2ccccc2)nn1Cc1ccccc1` was run?
A: 17.3%

Q: For `C=CCOc1c(Cl)cc(CNc2ccc(C)c(Cl)c2)cc1OC`, which “hERG current change (%, negative = inhibition) at 1uM” value is on record?
A: 8.63%

Q: `C=CCNC(=O)c1c(Cl)cccc1Cl` was tested. Which “hERG current change (%, negative = inhibition) at 1uM” value did it give?
A: 6.34%

Q: How did the “hERG current change (%, negative = inhibition) at 1uM” value turn out when `C/C(=N\OC(=O)c1ccccc1F)c1nccs1` was run?
A: -3.73%

Q: `COc1cc(C(=O)N/N=C/c2ccsc2C)cc(OC)c1OC` was tested. Which “hERG current change (%, negative = inhibition) at 1uM” value did it give?
A: 7.42%

Q: How did the “hERG current change (%, negative = inhibition) at 1uM” value turn out when `Cc1csc(N2CCN(c3cc4nc(-c5ccncc5)[nH]c4cc3Cl)CC2)n1` was run?
A: 10.2%

Q: How did the “hERG current change (%, negative = inhibition) at 1uM” value turn out when `O=C(c1ccc2c(c1)OCO2)N1CCN(c2ncccn2)CC1` was run?
A: 1.2%

Q: Which “hERG current change (%, negative = inhibition) at 1uM” value does the source give for `N=c1c(C(=O)NC2CCCC2)cc2c(=O)n3ccccc3nc2n1CCCN1CCOCC1` here?
A: -63.7%

Q: With `O=C(O)CCC(=O)Nc1nc2nc(-c3ccccc3)cc(-c3ccccc3)n2n1` as the compound, how does the “hERG current change (%, negative = inhibition) at 1uM” value read?
A: 3.77%

Q: Which “hERG current change (%, negative = inhibition) at 1uM” value does the source give for `Cc1ccc(-n2nc3c(N4CCC(C(=O)NCCc5cccs5)CC4)nnc(C)c3c2C)cc1` here?
A: 7.85%

Q: For `c1ccc(SCCOCCN2CCc3ccccc3C2)cc1`, which “hERG current change (%, negative = inhibition) at 1uM” value is on record?
A: -62.7%

Q: With `COc1ccc(-c2nnc(SCCC(=O)O)n2C)cc1OC` as the compound, how does the “hERG current change (%, negative = inhibition) at 1uM” value read?
A: 1.85%

Q: With `CCN(CC(=O)Nc1cc(Cl)ccc1C)C(=O)c1ccc(=O)n(Cc2ccccc2)n1` as the compound, how does the “hERG current change (%, negative = inhibition) at 1uM” value read?
A: 9.23%

Q: With `O=C1C2C3C=CC(C3)C2C(=O)N1CCN1CCN(Cc2ccc([N+](=O)[O-])cc2)CC1` (stereo not shown) as the compound, how does the “hERG current change (%, negative = inhibition) at 1uM” value read?
A: 2.59%

Q: For `Cc1n[nH]c(=O)n1-c1ccc(C(C)C)cc1`, which “hERG current change (%, negative = inhibition) at 1uM” value is on record?
A: 14.5%

Q: How did the “hERG current change (%, negative = inhibition) at 1uM” value turn out when `Cc1sc2ncn(CC(=O)NCC(=O)N3CCN(c4ccccc4F)CC3)c(=O)c2c1C` was run?
A: 7.84%

Q: With `O=C(Nc1cccc(N2C(=O)C3CCCCC3C2=O)c1)c1ccccc1` (stereo not shown) as the compound, how does the “hERG current change (%, negative = inhibition) at 1uM” value read?
A: 13.3%

Q: How did the “hERG current change (%, negative = inhibition) at 1uM” value turn out when `COc1ccc(CC(=O)OCC(=O)NC2CC2)cc1` was run?
A: 10.1%

Q: How did the “hERG current change (%, negative = inhibition) at 1uM” value turn out when `O=C(Nc1c(C(=O)c2ccccc2)oc2ccccc12)c1cc(-c2ccccc2O)n[nH]1` was run?
A: 17%

Q: `CCOC(=O)CCCn1ncn2c(cc3occc32)c1=O` was tested. Which “hERG current change (%, negative = inhibition) at 1uM” value did it give?
A: 11.4%

Q: How did the “hERG current change (%, negative = inhibition) at 1uM” value turn out when `N#CC1(NC(=O)COC(=O)c2cc(O)c3ccccc3c2O)CCCCC1` was run?
A: 2.61%

Q: `CC1CCCN(C(=O)COC(=O)c2cc(-c3cccs3)nn2-c2ccccc2)C1` (stereo not shown) was tested. Which “hERG current change (%, negative = inhibition) at 1uM” value did it give?
A: 1.34%

Q: Which “hERG current change (%, negative = inhibition) at 1uM” value does the source give for `CN(CC(=O)Oc1ccc(-c2nnco2)cc1)S(=O)(=O)c1ccc(F)cc1` here?
A: -3.03%

Q: How did the “hERG current change (%, negative = inhibition) at 1uM” value turn out when `COc1ccc(OC)c(NC(=O)CN2CCN(C(=O)c3ccco3)CC2)c1` was run?
A: -4.43%

Q: With `Cc1ccc(Sc2cnc3ccccc3n2)cc1` as the compound, how does the “hERG current change (%, negative = inhibition) at 1uM” value read?
A: 0.237%

Q: `Clc1cccc(-c2nc(NCCCN3CCOCC3)c3ccccc3n2)c1` was tested. Which “hERG current change (%, negative = inhibition) at 1uM” value did it give?
A: 12.3%

Q: How did the “hERG current change (%, negative = inhibition) at 1uM” value turn out when `CC(=O)Nc1ccc(OCC=C(Cl)Cl)cc1` was run?
A: 4.11%

Q: For `CCn1cc(/C=c2/sc3n(c2=O)C2c4ccccc4OC(C)(N=3)C2C(=O)OC)c(C)n1` (stereo not shown), which “hERG current change (%, negative = inhibition) at 1uM” value is on record?
A: -0.252%

Q: `O=C(CCNC(=O)c1ccc([N+](=O)[O-])cc1)Nc1ccc(S(=O)(=O)N2CCOCC2)cc1` was tested. Which “hERG current change (%, negative = inhibition) at 1uM” value did it give?
A: 11.2%
